Laboratory results reported in publication PMC4336329 (PLoS ONE, 2015).
Out of some 310,000 compounds screened, about 2,200 (0.71%) showed an effect of 50% or more. The effect is printed as a negative number. The list shows a part of the results.

What follows are molecules tested against human ether-à-go-go-related gene (hERG) potassium channel (human, UniProt Q12809) (assay: primary screen, population patch clamp on CHO cells stably expressing hERG).
Sequence of human ether-à-go-go-related gene (hERG) potassium channel (Q12809 whole entry, looked up): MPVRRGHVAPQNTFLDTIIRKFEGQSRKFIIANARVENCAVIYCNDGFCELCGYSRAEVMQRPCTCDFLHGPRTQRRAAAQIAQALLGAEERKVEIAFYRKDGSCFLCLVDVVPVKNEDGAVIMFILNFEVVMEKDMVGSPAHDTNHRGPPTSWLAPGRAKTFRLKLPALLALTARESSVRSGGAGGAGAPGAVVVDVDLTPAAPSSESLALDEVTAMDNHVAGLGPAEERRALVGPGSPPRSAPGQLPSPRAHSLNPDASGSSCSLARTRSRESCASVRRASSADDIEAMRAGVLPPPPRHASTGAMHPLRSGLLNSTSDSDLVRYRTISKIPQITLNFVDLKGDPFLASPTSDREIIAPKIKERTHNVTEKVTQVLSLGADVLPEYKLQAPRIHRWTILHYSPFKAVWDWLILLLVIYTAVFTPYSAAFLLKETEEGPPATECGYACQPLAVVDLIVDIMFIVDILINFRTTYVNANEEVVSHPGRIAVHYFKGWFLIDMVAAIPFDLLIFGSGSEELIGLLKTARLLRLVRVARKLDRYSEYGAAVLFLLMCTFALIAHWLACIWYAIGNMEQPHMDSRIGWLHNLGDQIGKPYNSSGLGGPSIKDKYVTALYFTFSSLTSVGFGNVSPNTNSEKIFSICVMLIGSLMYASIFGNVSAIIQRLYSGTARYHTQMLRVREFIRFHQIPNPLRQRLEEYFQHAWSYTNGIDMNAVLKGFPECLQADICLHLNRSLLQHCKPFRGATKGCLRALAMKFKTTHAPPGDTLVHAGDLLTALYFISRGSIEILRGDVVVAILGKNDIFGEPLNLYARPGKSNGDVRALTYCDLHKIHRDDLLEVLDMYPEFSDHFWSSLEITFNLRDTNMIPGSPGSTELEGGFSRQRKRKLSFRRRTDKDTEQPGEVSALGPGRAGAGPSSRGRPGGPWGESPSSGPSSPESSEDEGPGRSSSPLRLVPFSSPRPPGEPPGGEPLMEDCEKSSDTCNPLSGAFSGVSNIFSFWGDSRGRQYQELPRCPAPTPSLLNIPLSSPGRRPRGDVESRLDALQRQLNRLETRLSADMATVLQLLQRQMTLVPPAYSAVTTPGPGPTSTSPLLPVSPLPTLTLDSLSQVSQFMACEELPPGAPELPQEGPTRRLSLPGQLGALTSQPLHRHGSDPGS

| Structure (SMILES) | hERG current change (%, negative = inhibition) at 1uM [%] |
| --- | --- |
| CN(C)S(=O)(=O)c1ccc(NC(=O)c2ccc(Br)o2)cc1 | -0.166 |
| CN(CCCCN1CCOCC1)Cc1nc(-c2ccc3c(c2)OCO3)no1 | 1.64 |
| O=C(CCn1c(=O)[nH]c2ccsc2c1=O)N1CCN(Cc2ccc3c(c2)OCO3)CC1 | -2.97 |
| CCOC(=O)c1sc(=NC(=O)c2ccc(Br)cc2)n(C)c1C | 11.3 |
| CN(Cc1nc(-c2ccc(Cl)cc2)no1)C(=O)c1ccc2c(c1)OCO2 | 3.99 |
| Cc1c(C(=O)Nc2ccc(Cl)cn2)oc2ccccc12 | 8.02 |
| O=C(/C(=C/c1ccc(Cl)cc1)c1nc2ccccc2[nH]1)c1cccs1 | 6.05 |
| Cc1ccc(NC(=O)c2nc[nH]c2C(=O)NCc2ccccc2)cc1 | 8.32 |
| Cn1ncc(Cl)c1C(=O)NCC1CCCO1 (stereo not drawn) | 3.38 |
| Cc1cc(OCC(=O)N2CCOCC2)ccc1[N+](=O)[O-] | 1.71 |
| O=C(NNC(=S)NCc1ccccc1)c1ccc(Br)cc1 | 11.8 |
| O=C(COc1ccc2cc(Br)ccc2c1)N1CCCC1 | -16.6 |
| O=Cc1cn(CCC(=O)O)nc1-c1cc2ccccc2o1 | 0.996 |
| CCc1ccc(NC(=O)Nc2c(C)n(C)n(-c3ccccc3)c2=O)cc1 | 17.2 |
| CCOC(=O)C1(CCc2ccccc2)CCN(C(=O)c2occc2C)CC1 | -9.67 |
| CCOCC(=O)Nc1nnc(Cc2ccc(OC)c(OC)c2)s1 | 6.01 |
| COc1ccc(S(=O)(=O)N(C)C)cc1NC(=O)CSc1ncccn1 | 9.6 |
| COC(=O)Cn1c2ccc(OC)cc2c2nc3ccccc3nc21 | 6.33 |
| COc1ccc(/C=N/n2c(-c3cc(C)[nH]n3)n[nH]c2=S)cc1OC | 12.8 |
| O=C(/C=C/c1cccnc1)c1ccc([N+](=O)[O-])cc1 | 7.64 |
| Cc1cc(NC(=O)CSCC(=O)N(C)Cc2ccc(Cl)cc2Cl)no1 | 14.3 |
| COc1cc(/C=C2\NC(=S)N(C)C2=O)ccc1O | 19.7 |
| COc1ccc(C(=O)NC(=S)NCc2cccnc2)cc1[N+](=O)[O-] | 9.75 |

| Structure (SMILES) | hERG current change (%, negative = inhibition) at 1uM [%] |
| --- | --- |
| CN1CCN(CCOc2ccc(Cl)c(Cl)c2)CC1.O=C(O)C(=O)O | 3.94 |
| Cn1cnnc1SCC(=O)c1c[nH]c2ccccc12 | 11.4 |
| COc1ccc(-c2ccc(S(=O)(=O)N3CCOCC3)cc2)cc1 | 8.16 |
| O=C(NC1CC(=O)N(c2ccc(Cl)cc2)C1)N1CCN(C(=O)c2ccco2)CC1 (stereo not drawn) | -49.8 |
| O=S(=O)(NCc1ccccc1)c1ccc(-n2cccn2)cc1 | 7.51 |
| CCOCCCNC(=O)c1cn(CC)c2ccc(S(=O)(=O)N3CCOCC3)cc2c1=O | 14.7 |
| Cc1cc(C)nc(SCc2ccc(C(=O)N/N=C/c3cccc(O)c3O)cc2)n1 | 10.8 |
| CCOc1cc(N2CCOCC2)c(OCC)cc1NC(=O)COc1ncnc2ccccc12 | 1.42 |
| Cc1ccc(CSc2nnc([C@@H]3CCCN3C(=O)OC(C)(C)C)o2)cc1 | -0.783 |
| CN1CCc2c(c(N3CCCCC3)nc3n[nH]c(N)c23)C1 | -2.25 |
| O=C(CN1CCN(S(=O)(=O)c2ccc(F)c(Cl)c2)CC1)N1CCc2ccccc21 | 2.34 |
| CN1C(=O)c2cccc3c(Cl)ccc(c23)C1=O | 7.9 |
| COc1ccc(OC)c2sc(NC(=O)c3ccc(S(=O)(=O)N4CCOCC4)cc3)nc12 | 10.7 |
| CCN1C(=O)[C@H]2[C@@H](c3ccc(C)cc3)N3C(=O)N(c4ccc(OC)cc4)C(=O)[C@@]3(Cc3ccc(Cl)cc3)[C@H]2C1=O | 10.7 |
| CCOc1c2ccc(C(=O)NCc3ccc(OC)cc3)cc2nn1CCOC | 10.4 |
| COc1ccc(/C=N/NC(=O)C2CCN(c3ncc(C(F)(F)F)cc3Cl)CC2)cc1 | -7.63 |
| O=C(CN1CCN(S(=O)(=O)c2ccccc2F)CC1)NCC1(N2CCOCC2)CCCCC1 | 1.43 |
| COc1ccc(/C=C(\NC(=O)c2cccs2)C(=O)N2CCOCC2)cc1OC | 9.57 |
| CCN(CC)CCN(Cc1cc2ccc(C)cc2[nH]c1=O)C(=O)Nc1ccc(Cl)cc1 | -78.4 |
| N#CCCN(C(=O)COC(=O)COc1ccccc1Cc1ccccc1)c1ccccc1 | 18.3 |
| CCOC(=O)c1nnsc1NC(=O)Nc1ccc(OC)cc1 | 17.8 |
| Cc1cccc2nc(Cn3c(=O)n(CCC(=O)NCc4ccco4)c(=O)c4sccc43)cc(=O)n12 | 1.37 |
| CN(C)S(=O)(=O)c1ccc(NC(=O)C2CCCN(C(=O)c3ccc(Cl)cc3)C2)cc1 (stereo not drawn) | 5.91 |

| Structure (SMILES) | hERG current change (%, negative = inhibition) at 1uM [%] |
| --- | --- |
| CCCn1c(=N)c(C(=O)NC2CCCC2)cc2c(=O)n3cccc(C)c3nc21 | -84.1 |
| CC(C)N(C)CCOC(=O)/C=C/c1ccccc1.Cl | 12 |
| COc1cccc(CN2CCNC(=O)C2CC(=O)NC2CCOCC2)c1OC (stereo not drawn) | 20 |
| Cn1c(SCc2cccc(F)c2)nnc1-c1cnccn1 | 10.4 |
| CN(C)/C=N/c1sc2c(c1C#N)CCCC2 | 11.9 |
| CCC(C)(C)n1nnnc1C(c1cccs1)N1CC=C(c2ccc(F)cc2)CC1 (stereo not drawn) | 7.1 |
| O=C(Nc1ccnc(-c2ccncc2)n1)c1ccccc1Cl | 10 |
| Cc1ccc2nc(COc3ccc(Cl)cc3)cc(=O)n2c1 | 4.06 |
| Cc1ccc(-c2nc3ccccc3c(=O)n2-c2ncccc2C)cc1 | 0.712 |
| Cc1ccc(C(=O)N2CCN(S(=O)(=O)c3ccc(C)cc3)CC2)cc1 | -0.09 |
| COc1ccccc1N(CC(=O)Nc1ccccc1)S(=O)(=O)c1cccs1 | 8.95 |
| O=C(NCCN1CCOCC1)c1ccc(Cl)nc1Cl | -1.85 |
| COc1ccc(CCNC(=O)C2CC(=O)N(c3ccc(Br)cc3)C2)cc1OC (stereo not drawn) | -10.5 |
| CCOC(=O)CN(C(=O)CSc1nnc(COc2ccc(OC)cc2)n1C)c1ccccc1 | 15.7 |
| Cc1ccc(C(=O)Nc2cccnc2N2CCN(C)CC2)cc1 | 7.96 |
| CCCC(=O)Nc1cc(Cl)ccc1C | 12.5 |
| C[C@]12CCC(=O)C=C1CCC1C2CC[C@@]2(C)C1CC[C@@]2(O)CC#N (stereo partly drawn) | -25.8 |
| COc1ccc(-c2nnc(SCC(=O)NC3CCCCC3)o2)cc1 | 3.98 |
| Cc1cc(Nc2ccccc2)n(C(=O)c2ccccc2)n1 | 4.15 |
| COC(=O)/C=C1/SC(=NC(=O)c2ccc(Cl)cc2)NC1=O | 16.6 |
| O=C(NCCCn1ccnc1)c1ccc(OCC(F)(F)F)cc1 | 2.75 |
| CCOC(=O)c1sc(NC(=O)CN2CCCC2)c(C(=O)OCC)c1C | -7.2 |
| CC(=O)N1CCN(C(=O)c2ccccc2NS(=O)(=O)c2ccc(F)cc2)CC1 | 7.49 |

| Structure (SMILES) | hERG current change (%, negative = inhibition) at 1uM [%] |
| --- | --- |
| COC(=O)c1cccc(N/C=C(\[N+](=O)[O-])S(=O)(=O)c2ccccc2)c1 | 13.1 |
| Cc1cc(C(=O)N/N=C/c2c(C)[nH]c3ccccc23)n[nH]1 | 13.7 |
| CSc1ccc(-c2nnn(CC(=O)NCc3ccccc3)n2)cc1 | 13.4 |
| COC(=O)C1CCN(S(=O)(=O)Cc2ccccc2)CC1 | 8.45 |
| O=C(c1cc(-c2ccc(Br)cc2)n[nH]1)N1CCN(C(=O)c2ccccc2Br)CC1 | 2.43 |
| COC(=O)c1c(C)cc(O)c(C=O)c1O | 7.57 |
| CC1CCN(C(=S)NCCc2ccccc2)CC1 | -8.86 |
| COC(=O)C1=C(c2cccc(C#N)c2)C[C@@H]2CC[C@H]1N2C(=O)N1CCC(C)CC1 | -3.09 |
| C=CCn1c(N)c(C(=O)OCC)sc1=S | 18 |
| Nc1ccc(OCCc2ccccc2)cc1 | 11.5 |
| O=C(CCN1C(=O)/C(=C/c2ccccc2F)SC1=S)NC1C=CS(=O)(=O)C1 (stereo not drawn) | 9.3 |
| O=C(O)c1ccc(Cl)c(S(=O)(=O)Nc2ccc(S(=O)(=O)Nc3cccc(Cl)c3)cc2)c1 | 11.6 |
| COC(=O)CCC/C=C1/SCC(NC(=O)c2ccccc2)/C1=N/O (stereo not drawn) | 11.5 |
| CCCNC(=O)c1cc(-c2ccc(OC)cc2)on1 | 3.94 |
| O=C(Nc1cnn(Cc2ccccc2)c1)NC12CC3CC(CC(C3)C1)C2 | 15.3 |
| Cc1cnc(NC(=O)CSc2nnc(N)s2)s1 | 19.4 |
| COC(=O)c1c(NC(=S)Nc2ccc(F)cc2[N+](=O)[O-])sc2c1CCCCC2 | 14.7 |
| COCC(=O)Nc1ccc(OC)c(Cl)c1 | 1.93 |
| Oc1ccccc1N1CCN(Cc2ncc(-c3ccccc3)o2)CC1 | 7 |
| CC(C)n1nccc1NS(=O)(=O)c1ccccc1 | 8.36 |
| O=C1C=C(c2ccc(OC(F)(F)F)cc2)C[C@@H](c2ccc(F)cc2)C1 | 11.2 |
